In assay [1] the target is VAPB-V5 (human VAPB, from pcDNA3.1-VAPB-V5) (human) (UniProt O95292). The assay can be described thus: co-IP; tagged proteins co-expressed in HeLa cells; lysis buffer 150 mM NaCl, 50 mM Tris-HCl pH 8.0, 1 mM EDTA, 0.5% Triton-100, with protease inhibitors and PhosSTOP; HA beads or antibody with Protein A Sepharose, 2-4 hr at 4°C; western blot. (In western blotting, separated proteins are transferred to a membrane and probed.)

Sequences of proteins named here, by UniProt entry; tags and fusion partners are left off.
UniProt O95292: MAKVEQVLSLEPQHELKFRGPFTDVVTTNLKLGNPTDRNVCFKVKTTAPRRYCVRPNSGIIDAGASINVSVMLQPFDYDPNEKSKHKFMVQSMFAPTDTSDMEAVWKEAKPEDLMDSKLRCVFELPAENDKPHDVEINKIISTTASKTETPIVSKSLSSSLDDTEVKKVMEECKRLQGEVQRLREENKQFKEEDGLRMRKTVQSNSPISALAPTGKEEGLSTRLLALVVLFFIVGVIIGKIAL

The target of assay [2] is T1, Vap33-Flag (Drosophila Vap33, Flag-tagged, from pUAS Vap33-FLAG) (Drosophila melanogaster) (UniProt Q9W4N8).
T1 sequence: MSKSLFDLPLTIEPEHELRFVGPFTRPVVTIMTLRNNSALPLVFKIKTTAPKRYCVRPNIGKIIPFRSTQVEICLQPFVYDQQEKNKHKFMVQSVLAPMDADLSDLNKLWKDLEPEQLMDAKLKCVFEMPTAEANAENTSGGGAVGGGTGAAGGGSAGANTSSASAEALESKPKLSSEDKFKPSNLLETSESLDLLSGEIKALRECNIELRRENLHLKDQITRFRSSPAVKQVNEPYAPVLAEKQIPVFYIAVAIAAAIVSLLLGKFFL
In words: co-IP; tagged proteins co-expressed in S2 cells; lysis buffer 150 mM NaCl, 50 mM Tris-HCl pH 8.0, 10 mM NaF, 1 mM Na3VO4, 1% NP-40, 10% glycerol, 1.5 mM EDTA, with protease inhibitors and PhosSTOP; HA beads, Flag beads or V5 antibody with Protein A Sepharose, 2-4 hr at 4°C; western blot.

Assay [3] addresses T2, Miga gRes-HA (genomic rescue fragment of Miga with 3xHA) (Drosophila melanogaster) (UniProt Q9W3F7).
T2 sequence: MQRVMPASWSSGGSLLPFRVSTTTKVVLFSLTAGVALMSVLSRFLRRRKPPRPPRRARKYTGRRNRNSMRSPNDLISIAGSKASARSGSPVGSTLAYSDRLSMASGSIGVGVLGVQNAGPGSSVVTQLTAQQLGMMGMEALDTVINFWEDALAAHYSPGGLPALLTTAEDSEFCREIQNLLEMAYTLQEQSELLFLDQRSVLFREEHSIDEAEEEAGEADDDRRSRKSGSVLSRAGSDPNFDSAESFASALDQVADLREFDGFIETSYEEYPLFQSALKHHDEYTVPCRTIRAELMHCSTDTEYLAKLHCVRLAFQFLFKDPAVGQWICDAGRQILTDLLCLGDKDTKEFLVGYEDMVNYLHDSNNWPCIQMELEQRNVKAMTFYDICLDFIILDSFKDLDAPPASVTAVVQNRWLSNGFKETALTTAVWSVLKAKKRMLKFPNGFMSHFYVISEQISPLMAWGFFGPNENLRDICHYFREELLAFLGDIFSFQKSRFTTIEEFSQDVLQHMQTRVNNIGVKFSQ
The assay is described as above.

Assay [4] concerns the target T3, Miga^FM-V5 (FFAT motif mutant form of Miga) (Drosophila melanogaster) (UniProt Q9W3F7).
T3 sequence: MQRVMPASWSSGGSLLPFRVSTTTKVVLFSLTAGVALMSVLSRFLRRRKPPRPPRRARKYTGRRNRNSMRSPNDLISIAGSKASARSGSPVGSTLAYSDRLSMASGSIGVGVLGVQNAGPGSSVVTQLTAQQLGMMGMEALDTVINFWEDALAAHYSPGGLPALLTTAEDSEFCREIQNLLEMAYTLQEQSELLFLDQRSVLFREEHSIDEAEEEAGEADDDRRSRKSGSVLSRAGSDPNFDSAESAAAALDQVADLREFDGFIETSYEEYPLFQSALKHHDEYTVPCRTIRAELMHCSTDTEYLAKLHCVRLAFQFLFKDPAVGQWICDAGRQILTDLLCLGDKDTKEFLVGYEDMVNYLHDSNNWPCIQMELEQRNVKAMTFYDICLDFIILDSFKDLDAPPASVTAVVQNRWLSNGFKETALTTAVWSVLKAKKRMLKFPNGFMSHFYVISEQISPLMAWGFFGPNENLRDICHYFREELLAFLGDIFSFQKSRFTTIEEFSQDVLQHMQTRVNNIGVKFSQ
Described as above.

Results are given in words; binding and its absence hold for the method and conditions named. In cells and extracts the contact can be indirect. Some binding calls cover weakened binding; strength is not graded here. Sequences can lack the tags named with a protein.

B1: HA-tagged MIGA1 (protein, UniProt Q8NAN2 1-632)
chain: MSDCCSAPGISWEAGVGRPAVPGLELQIRRGAMSEETVSESQFSLKTAALRVFDLPLTWYYSLSQIKFSPVAKKLFVVTAVSAISVIFLAHHFKRKRGKKKGKILPWEPEHLILEYTKRAASDKGSSCSSSRQNLTLSLSSTKDKGSQVCNYANGGLFSKYSGSAQSLASVQSVNSCHSCACGNSNSWDKADEDDIKLVNIPVTTPENLYLMGMELFEEALRRWEQALTFRNRQAEDEACGSIKLGAGDAIAEENVDDIISTEFIHKLEALLQRAYRLQEEFEATLGASDPNSLADDIDKDTDITMKGNVEDFGLRDTLSIASTDSFASAAELAEHREVRHTYSLESLCHCPFYEEAMHLVEEGKIYSRVLRTEMLECLGDSDFLAKLHCIRQAFQVILSESANRIFLAESGRKILSALIVKARKNPKKFEDVFDEMIYFLEQTDHWGSTEMELAARGVKNLNFYDVVLDFILMDSFEDLENPPTSIQNVVNNRWLNSSFKETAVASSCWSVLKQKRQQMKIPDGFFAHFYAICEHISPVLAWGFLGPRNSLYDLCCFFKNQVLLFLKDIFDFEKVRYSSTETLAEDLMQLLIRRTELLMAYLEADALRHTSSCLSSHGHVMSTGLLEAKVQ
In the case of B1, the binding result in assay [1] was “no binding”.

B2: Miga gRes-HA (genomic rescue fragment of Miga with 3xHA) (protein, UniProt Q9W3F7 1-525)
chain: MQRVMPASWSSGGSLLPFRVSTTTKVVLFSLTAGVALMSVLSRFLRRRKPPRPPRRARKYTGRRNRNSMRSPNDLISIAGSKASARSGSPVGSTLAYSDRLSMASGSIGVGVLGVQNAGPGSSVVTQLTAQQLGMMGMEALDTVINFWEDALAAHYSPGGLPALLTTAEDSEFCREIQNLLEMAYTLQEQSELLFLDQRSVLFREEHSIDEAEEEAGEADDDRRSRKSGSVLSRAGSDPNFDSAESFASALDQVADLREFDGFIETSYEEYPLFQSALKHHDEYTVPCRTIRAELMHCSTDTEYLAKLHCVRLAFQFLFKDPAVGQWICDAGRQILTDLLCLGDKDTKEFLVGYEDMVNYLHDSNNWPCIQMELEQRNVKAMTFYDICLDFIILDSFKDLDAPPASVTAVVQNRWLSNGFKETALTTAVWSVLKAKKRMLKFPNGFMSHFYVISEQISPLMAWGFFGPNENLRDICHYFREELLAFLGDIFSFQKSRFTTIEEFSQDVLQHMQTRVNNIGVKFSQ
Turning to B2, the binding entry in assay [2] is given as “binds”.

B3: Miga^FM-V5 (FFAT motif mutant form of Miga) (protein, UniProt Q9W3F7 1-525)
chain: MQRVMPASWSSGGSLLPFRVSTTTKVVLFSLTAGVALMSVLSRFLRRRKPPRPPRRARKYTGRRNRNSMRSPNDLISIAGSKASARSGSPVGSTLAYSDRLSMASGSIGVGVLGVQNAGPGSSVVTQLTAQQLGMMGMEALDTVINFWEDALAAHYSPGGLPALLTTAEDSEFCREIQNLLEMAYTLQEQSELLFLDQRSVLFREEHSIDEAEEEAGEADDDRRSRKSGSVLSRAGSDPNFDSAESAAAALDQVADLREFDGFIETSYEEYPLFQSALKHHDEYTVPCRTIRAELMHCSTDTEYLAKLHCVRLAFQFLFKDPAVGQWICDAGRQILTDLLCLGDKDTKEFLVGYEDMVNYLHDSNNWPCIQMELEQRNVKAMTFYDICLDFIILDSFKDLDAPPASVTAVVQNRWLSNGFKETALTTAVWSVLKAKKRMLKFPNGFMSHFYVISEQISPLMAWGFFGPNENLRDICHYFREELLAFLGDIFSFQKSRFTTIEEFSQDVLQHMQTRVNNIGVKFSQ
As for B3, the binding result in assay [2] is “no binding”.

B4: Miga^(S246A, S249A)-V5 (protein, UniProt Q9W3F7 1-525)
chain: MQRVMPASWSSGGSLLPFRVSTTTKVVLFSLTAGVALMSVLSRFLRRRKPPRPPRRARKYTGRRNRNSMRSPNDLISIAGSKASARSGSPVGSTLAYSDRLSMASGSIGVGVLGVQNAGPGSSVVTQLTAQQLGMMGMEALDTVINFWEDALAAHYSPGGLPALLTTAEDSEFCREIQNLLEMAYTLQEQSELLFLDQRSVLFREEHSIDEAEEEAGEADDDRRSRKSGSVLSRAGSDPNFDSAEAFAAALDQVADLREFDGFIETSYEEYPLFQSALKHHDEYTVPCRTIRAELMHCSTDTEYLAKLHCVRLAFQFLFKDPAVGQWICDAGRQILTDLLCLGDKDTKEFLVGYEDMVNYLHDSNNWPCIQMELEQRNVKAMTFYDICLDFIILDSFKDLDAPPASVTAVVQNRWLSNGFKETALTTAVWSVLKAKKRMLKFPNGFMSHFYVISEQISPLMAWGFFGPNENLRDICHYFREELLAFLGDIFSFQKSRFTTIEEFSQDVLQHMQTRVNNIGVKFSQ
For B4, the binding entry in assay [2] is given as “no binding”.

B5: Vap33-Flag (Drosophila Vap33, Flag-tagged, from pUAS Vap33-FLAG) (protein, UniProt Q9W4N8 1-269)
chain: MSKSLFDLPLTIEPEHELRFVGPFTRPVVTIMTLRNNSALPLVFKIKTTAPKRYCVRPNIGKIIPFRSTQVEICLQPFVYDQQEKNKHKFMVQSVLAPMDADLSDLNKLWKDLEPEQLMDAKLKCVFEMPTAEANAENTSGGGAVGGGTGAAGGGSAGANTSSASAEALESKPKLSSEDKFKPSNLLETSESLDLLSGEIKALRECNIELRRENLHLKDQITRFRSSPAVKQVNEPYAPVLAEKQIPVFYIAVAIAAAIVSLLLGKFFL
B5: the binding entry is recorded as “binds” in assay [3] and “no binding” in assay [4].

Source of the values: PMC7556861.
